# Measured values reported in ChEMBL document CHEMBL4888484, “Replenishing the malaria drug discovery pipeline: Screening and hit evaluation of the MMV Hit Generation Library 1 (HGL1) against asexual blood stage Plasmodium falciparum ,using a nano luciferase reporter read-out” (2022).
# The whole screen tested about 150,000 compounds, of which about 540 (0.36%) showed an effect of 50% or more. Some of the results follow.
# System: Plasmodium falciparum
# Assay: Primary screen in NF54 nanoGlo assay, in single point, at 2uM, 72h; a lower Z score goes with more inhibition
# Type: functional, Erythrocyte
# Conditions: timepoint 72 hour
Structure (SMILES),% Inhibition [%],Z score
CCCCCC(=O)N1CC[C@@H](CC(=O)O)[C@@H](Cc2nc3ccc(C)cc3[nH]2)C1,27,-3.02
COc1ccc(NC(=O)c2cc3c(=O)n(C)ccc3n2C)cc1OC,-20,1.97
Cc1[nH]ccc1C(=O)N1CCOC[C@@H]1CC(=O)c1ccco1,-2,0.23
Cc1ccccc1N1CCN(C(=O)c2ccc3sc(N)nc3c2)CC1,6,-0.91
Oc1cccc(CN[C@H]2CCCc3occc32)c1Cl,78,-12.81
COc1cc(CC(=O)N2CC[C@H](c3ccc4c(c3)OCO4)C2)ccc1O,-11,1.74
Cc1ccc([C@@H](NC(=O)NCC(=O)NC2CC2)c2cccnc2)c(C)c1,5,-0.58
COc1ccc(Cn2nnc(C(=O)N[C@@H](C)c3nccn3C)c2C)cc1,-6,1.02
O=C(NCCNCc1c[nH]c2ccccc12)c1cccs1,-31,3.59
CCc1nnc(CN(CC)C(=O)CCN2CCCCO2)o1,-4,0.79
Cc1cc(CN(C)C)cc(NC(=O)[C@H]2CCc3[nH]nnc3C2)c1,0,0.03
O=C(N[C@H](c1ccc2c(c1)OCCO2)C(F)(F)F)c1ccccc1Cl,-3,0.28
C[C@@H](Cn1cccn1)NC(=O)c1cc(Cl)c(Cl)n1C,0,0.04
OCC[C@H]1CN(Cc2cccc3c2OCO3)CCN1Cc1ccc(F)c(F)c1,-34,3.04
CCC(CC)C1CC(NCc2cncs2)CCO1 (stereo not drawn),-8,1.03
O=C(Cc1ccc(Cl)cc1)Nc1ccc(N2CCN(C(=O)c3ccco3)CC2)c(Cl)c1,-11,1.24
Cc1n[nH]c(C)c1CCC(=O)N1C[C@H](C(C)C)[C@@H](N(C)C)C1,-9,1.2
CC(NS(C)(=O)=O)C(C)c1ccccc1C(F)(F)F (stereo not drawn),0,0.06
Cc1cc(CC(=O)N2C[C@H]3CC[C@@H](C2)N(Cc2c(C)noc2C)C3=O)on1,2,-0.23
Cc1cc(-n2cnnc2)ncc1-c1cccc2c1OCC2,-5,0.67
Cc1cccc(C(=O)NC[C@H](C(=O)O)C2CCCCC2)n1,-10,1.95

Structure (SMILES),% Inhibition [%],Z score
CN(c1ccc(NC(=O)[C@@H](c2cccnc2)N(C)C)cc1F)C1CCCCC1,-4,0.49
Cc1oc(-c2ccc3ccccc3c2)nc1CN(C)CCCO,2,-0.23
O=C(NCCc1ccc(F)cc1)c1cc(O)ncn1,-11,1.84
COc1cccc(C(=O)N[C@H]2CCc3[nH]cnc3C2)c1,-6,0.87
CC(=O)NS(=O)(=O)CCC1CCCC1,-6,0.63
COC1(c2nccn2C)CN(S(=O)(=O)c2ccccc2F)C1,-7,0.86
O=C(CCc1ccncc1)Nc1ncccc1Br,0,-0.03
Cc1cc(C)n(Cc2nc(Cn3cc(Br)cn3)no2)n1,-11,1.75
COCCCN1C(=O)C2C(C)NC3(C(=O)Nc4c(Cl)cccc43)C2C1=O (stereo not drawn),-14,1.85
Cc1nc(-c2ccccc2)cc(N2CCN(CCc3ccccc3)CC2)n1,0,0
Cc1[nH]cnc1CNC(=O)c1sccc1Cl,-9,1.62
Oc1cc(-c2ncc(C(F)(F)F)cc2Cl)cc2c1OCCNC2,-11,1.71
CC[C@@H](C(=O)NCc1ccc(OC(C)C)cc1)n1ccc2cc(S(=O)(=O)N3CCCCC3)ccc21,34,-4.98
Cc1ccc2c(c1)N(C)C(=O)c1cc(NS(=O)(=O)c3ccc(Cl)cc3)ccc1O2,-7,0.85
COCCc1noc(CCCc2c[nH]c3ccccc23)n1,-4,0.7
O=C(c1cnn2c1OCCC2)N1CCc2nc[nH]c2C12CCC2,-4,0.53
Clc1cccc(C2CC(N[C@H]3CCc4cn[nH]c4C3)C2)c1 (stereo partly drawn),-7,1.35
COc1ccc(-c2ccc(N3CCCN(C(=O)CN(C(=O)C4CCC4)C4CC4)CC3)nn2)cc1,-11,2.28
CCCc1noc(CNC2(C(=O)OC)CCC(C)CC2)n1 (stereo not drawn),-6,0.75
O=C(NC1CCCCC1)C(=O)c1ccc[nH]1,6,-0.55
Cc1nsc2ncc(C(=O)N3CCOCC3)c(N3CCC(C(=O)Nc4ccccc4C(F)(F)F)CC3)c12,-2,0.4

Structure (SMILES),% Inhibition [%],Z score
CCC(=O)N1CCCN(S(=O)(=O)C(C)C)CC1,-1,0.1
Cc1cn(CCNC(=O)Cc2nc(C)sc2C)nn1,2,-0.42
c1ccc(CN2CC[C@H](c3nc(-c4cnccn4)no3)C2)cc1,-7,1.31
O=C(Nc1ccccc1-c1ccccc1)c1ccc(-n2cnnn2)cc1,3,-0.48
Cc1cncc(C(=O)Oc2ccc(OCc3cnn(C)c3)cc2)c1,-4,0.35
Cc1nc(CCNC(=O)N[C@@](C)(CO)C2CCCCC2)cs1,-16,1.85
COC(=O)c1cc(C(=O)N2CC3CCCC3C2)ccn1 (stereo not drawn),-4,0.71
Cc1oc(C)c(C(=O)Nc2nc(-c3cccc4ccccc34)cs2)c1Br,-16,1.63
O=C1Nc2ccc(-c3cccc(C(F)(F)F)c3)cc2C(=O)N2CCN(C(=O)C3CCNCC3)C[C@H]12,-2,0.28
Cc1sc(S(=O)(=O)N2CCCC2)cc1NC(=O)c1ccc(F)c(F)c1,-2,0.3
COc1cc2c(cc1OC)[C@@H](c1c(F)cccc1Cl)N(C(=O)COc1ccccc1)CC2,11,-1.55
Cc1ccc(-c2ccccc2CN2C[C@@H](CN(C)C)C[C@H](CO)C2)o1,-11,1.14
COc1ccc(OC)c([C@H](C)NC(=O)c2cccc3nccn23)c1,-7,0.75
COc1ccc(CCN2C(=O)[C@H](CC(C)C)NC23CCN(C(=O)c2cccc(F)c2)CC3)cc1OC,-12,1.2
Cc1ccc(-c2cc3c4c(C)n(C)c(C)c4c(C)nn3c2)o1,4,-0.51
O=C(COc1ccccc1)Nc1ccc(N2CCN(C(=O)c3cccc(F)c3)CC2)nc1,-20,2.72
CCc1nc(N(C)CC[C@H](C)N2CCCC2)no1,-12,1.34
CCOCCCC(=O)Nc1cc(Br)c(F)cc1OC,-7,1.02
CNc1ccc(C)cc1CN[C@@H]1c2ccccc2OC[C@@H]1CO,2,-0.23
Cc1n[nH]cc1CN(C)C(=O)COCC(F)(F)C(F)F,8,-1.23
Cc1nc2c(c(NC[C@H](O)C(N)=O)n1)CCCC2,4,-0.55

Structure (SMILES),% Inhibition [%],Z score
Cc1[nH]n(C(=N)N)c(=O)c1Cc1ccccc1,-13,2.44
O=C(NCCc1ccccn1)c1ccc(Nc2c(Oc3ccccc3)cnn(Cc3ccccc3)c2=O)cc1,3,-0.51
Cc1nn(C)c(C)c1CC(=O)N1CCN(c2ccccn2)CC1,-5,0.67
CC(C)N1CCN2C(=O)c3ccccc3OCC[C@@H]3CC[C@@H](NC(=O)CC(C)(C)C)[C@@H](CNC(=O)[C@@H]2C1)O3,-2,0.23
Cc1ccc(-n2nc(C)c(CC(=O)N[C@H]3C[C@@H](O)C3)c2C)cc1Cl,-4,0.56
CCc1ccc(-c2nn(C)c(=O)c3c2CCCC3)cc1S(=O)(=O)N1CCCCCC1,-10,1.53
CN1C(=O)[C@@H](c2ccccc2)CC12CCN(Cc1ccsc1)CC2,4,-0.76
COc1cc(NC(=O)c2c(F)cccc2Cl)ccc1N1CCCCC1=O,-8,1.21
CCc1cc(O)nc(CN(C)CCc2ccncc2)n1,-1,0.1
CC(C)(C)OC(=O)NCC(=O)Nc1ccc(Cl)c(F)c1,-9,1.01
C=CCn1c(C)c(CC(=O)Nc2ccccc2OCC)c(=O)n2nc(-c3ccc(C)cc3)nc12,-1,0.06
CC(C)OCc1noc(CN2CC(C)(C)C[C@H]2c2ccccc2)n1,-12,1.64
O=C(c1cccc([C@H]2CCCNC2)c1)N1CCc2ccccc2C1,-2,0.33
CN(CCN1CCCC1)S(=O)(=O)CCCNC(=O)OC(C)(C)C,-6,0.9
CC(C)OC(=O)C[C@H]1CCCN(S(C)(=O)=O)C1,3,-0.47
O=C(O)[C@H](Cc1ccccc1)n1sc2ccccc2c1=O,-15,2.16
O=C(C[C@@H]1CCN2C[C@@H]1/C=C\COc1ccccc1CNCC2=O)NCc1ccccn1,-9,1.38
COc1ccc(CNC(=O)CC(C)(C)C)cc1OC,2,-0.23
CC(O)(CN1CCCC(CN2CCOCC2)C1)C(F)(F)F (stereo not drawn),-1,0.1
Cc1c(C#N)cccc1NC(=O)NC(C)[C@@H]1C[C@H](C(=O)O)C1(C)C (stereo partly drawn),-7,1.03
CS(=O)(=O)NCC(=O)N1CCCC1CC1CC2CCC1C2 (stereo not drawn),-10,1.95
